In PMC6919601, “Identification of Plasmodium dipeptidyl aminopeptidase allosteric inhibitors by high throughput screening” (PLoS ONE, 2019):
Hit rate of the full screen: of about 110,000 compounds, about 230 (0.21%) showed an effect of 50% or more. Some of the results follow.

Target: DPAP1 (Plasmodium falciparum, UniProt Q8IIJ9)
Experiment: primary screen, percent inhibition; read by cleavage of a fluorogenic dipeptide substrate; higher = more effect of the substance
Design: species or system P. falciparum D10 trophozoite lysates; single well
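Also: 30 min substrate incubation versus DMSO and 10 µM JCP410 controls.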

DPAP1, sequence (Q8IIJ9 whole entry, looked up): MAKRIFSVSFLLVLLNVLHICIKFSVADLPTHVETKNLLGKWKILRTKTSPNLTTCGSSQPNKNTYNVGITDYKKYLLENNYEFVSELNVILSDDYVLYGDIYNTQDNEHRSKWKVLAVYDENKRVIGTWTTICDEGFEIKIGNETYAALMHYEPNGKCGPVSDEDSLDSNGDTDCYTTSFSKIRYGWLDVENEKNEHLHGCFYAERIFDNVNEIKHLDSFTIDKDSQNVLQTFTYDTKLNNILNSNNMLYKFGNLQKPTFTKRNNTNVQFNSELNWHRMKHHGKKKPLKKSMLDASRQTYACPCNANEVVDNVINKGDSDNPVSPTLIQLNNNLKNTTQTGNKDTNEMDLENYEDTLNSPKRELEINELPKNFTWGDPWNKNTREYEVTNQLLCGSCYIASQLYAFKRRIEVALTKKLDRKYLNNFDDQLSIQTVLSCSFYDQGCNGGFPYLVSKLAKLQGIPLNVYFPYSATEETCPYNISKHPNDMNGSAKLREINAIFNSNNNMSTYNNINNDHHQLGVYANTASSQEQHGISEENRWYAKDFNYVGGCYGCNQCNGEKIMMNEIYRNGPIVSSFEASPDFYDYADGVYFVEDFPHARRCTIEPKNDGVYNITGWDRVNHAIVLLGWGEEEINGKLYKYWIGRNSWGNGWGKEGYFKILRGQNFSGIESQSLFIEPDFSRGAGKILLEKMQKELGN

Structure (SMILES)	% Inhibition @ 10 uM
Cn1c(SCC(=O)NCCc2ccccc2)nc2c1c(=O)n(Cc1ccccc1Cl)c(=O)n2C	3.81%
CN(C)c1ccc2c(c1)OC(N)=C(C#N)C21C(=O)Nc2ccc(Br)cc21 (stereo not drawn)	-0.0217%
COCC(C)NC(=O)Cn1nc(C)c(NC(=O)c2cc(-c3ccc(OC)c(OC)c3)no2)c1C (stereo not drawn)	0.807%
Cc1nn(C(=O)c2ccccc2)c2c1C(=O)CC(C)(C)C2	2.4%
COc1ccc(NS(=O)(=O)c2ccc(NC(=O)c3ccc4c(c3)OCO4)cc2)cc1	-0.598%
COc1ccc(C(c2c(O)n3c(nc2=O)SCC3)c2c(O)n3c(nc2=O)SCC3)cc1OC	-0.865%
COc1ccc(S(=O)(=O)N2CCC(C(=O)NC(C)C)CC2)cc1OC	-3.74%
CNC(=O)/C=C1\NC(C)(C)Cc2ccccc21	0.815%
CC1CCN(S(=O)(=O)N2CCCC(C(=O)NCc3cccnc3)C2)CC1 (stereo not drawn)	2.05%
CC(CCc1ccccc1)N1CCN(CCOCCO)CC1 (stereo not drawn)	-2.95%
Cc1ccc(CNC(=O)C2c3ccccc3C(=O)N3CCc4ccccc4C23)cc1 (stereo not drawn)	5.88%
Cc1cccc2c1cnn2C(=O)CCC(=O)N1CCN(c2ccccn2)CC1	-1.7%
CCOC(=O)N1CCC(NC(=O)Cn2ncc3c2-c2ccccc2OC3)CC1	-4.21%
CCOc1cc2c(cc1OCC)C1C(C(=O)N(CC)Cc3ccccc3)c3ccccc3C(=O)N1CC2 (stereo not drawn)	1.86%
CCOC(=O)c1c(-c2ccccc2)csc1NC(=O)c1noc2c1CCCC2	-4.51%
COc1ccc(Cn2ccn(Cc3ccc(F)cc3)c(=O)c2=O)cc1	-3.8%
CCCc1nn2c(=O)cc(COc3ccc(C=C(C#N)C#N)cc3OC)nc2s1	-9.6%
CCOC(=O)c1c(CN2CCN(C)CC2)oc2cc(Br)c(OC)c(Br)c12	-4.49%
Cc1cccc(C(=O)Nc2cc(C)ccc2C)c1	2.46%
Cc1csc(NC(=O)c2c(O)nc3ccccc3c2O)n1	-2.78%
Cc1ccc(S(=O)(=O)NC(C)C(=O)NC2CCCC2)cc1 (stereo not drawn)	1.27%
O=C(NC12CC3CC(CC(C3)C1)C2)N1CCN(CCO)CC1	-3.63%
N#CC1=C(N)N(c2sc3c(c2C#N)C2CCN3CC2)C2=C(C(=O)CCC2)C1c1cccc(Cl)c1 (stereo not drawn)	0.883%
N#CC1=C(N)Oc2cc(N)ccc2C1c1cccs1 (stereo not drawn)	2.58%
C=C(C)[C@@H]1CC=C(CN(C)C2CCN(C)CC2)CC1	-1.41%

Structure (SMILES)	% Inhibition @ 10 uM
Cc1ccc(C)c(OCC(=O)Nc2ccc(S(=O)(=O)N3CCC(C)CC3)cc2)c1	-3.33%
C=CCC(C(=C)C)S(=O)(=O)c1ccc(C)cc1 (stereo not drawn)	-4.76%
COc1ccc2cc3c(N)nn(C(=O)Cc4c[nH]c5ccccc45)c3nc2c1	12.3%
c1csc(C2=NN3C(C2)c2ccccc2OC32CCCC2)c1 (stereo not drawn)	3.43%
Cc1ccc(S(=O)(=O)N(C)CC(=O)NCCCc2ccccc2)cc1	0.795%
COc1ccc(F)cc1S(=O)(=O)N1CCCN(S(=O)(=O)c2cc(F)ccc2OC)CC1	3.81%
COc1ccc2c(c1)c(C)c(C)n2CCc1ccc(C)nc1	-0.962%
Cc1[nH]c2ccccc2c1/C=C(\C#N)C(=O)NCc1ccccc1	-5.2%
O=c1oc2ccccc2c(N2CCN(C3CCCCC3)CC2)c1CN1CCCC1	-1.68%
COc1ccccc1CNC(=O)C1C2C=CC3(CN(Cc4cccs4)C(=O)C13)O2 (stereo not drawn)	-0.503%
Cc1c(C(=O)NC(C)c2ccccc2)oc2ccc3c(c12)C(=O)CC1(CCCC1)O3 (stereo not drawn)	0.623%
O=C1c2cccc3cccc(c23)C(=O)N1CCCC(=O)N1CCc2ccccc21	-5.31%
O=S(=O)(NCc1ccc(F)cc1)c1ccc(-c2ccc(O)nn2)s1	1.06%
O=C(O)C1C2C=CC(C2)C1C(=O)Nc1cccc(Br)c1 (stereo not drawn)	-0.0217%
CC(C)(C)C1CCC(N2CCC(O)CC2)CC1 (stereo not drawn)	-1.81%
Cc1ccccc1Cn1c(CNC(=O)C(C)(C)C)nc2ccccc21	6.66%
O=C(CO/N=C/c1ccccc1)Nc1nc2ccccc2s1	-6.23%
N#Cc1cc2c(nc1Cl)CCCC2	2.03%
CSc1ncc(C(=O)N2CCN(Cc3ccccc3)CC2)c(C)n1	3.69%
CC(C)(C)OC(=O)N1CCN(S(=O)(=O)c2ccc(-n3cnnn3)cc2)CC1	4.18%
COc1ccc(/C=C2\S/C(=N/c3ccc(C(=O)O)cc3)N(C)C2=O)c(C)c1	9.14%
CCn1cc(C(=O)N2CCN(C(=O)c3ccco3)CC2)c2cc(OC)c(OC)cc2c1=O	2.73%
CCOc1ccc(-c2c(C)s/c(=N\C(=O)c3cccnc3)n2C)cc1	-7.89%
CCCCSc1nc(O)c2cnn(-c3ccc(C)cc3)c2n1	-1.54%
Cc1noc(C)c1S(=O)(=O)N1CCC(C(=O)Nc2ccccn2)CC1	-0.148%

Structure (SMILES)	% Inhibition @ 10 uM
CCN(Cc1ccccc1)S(=O)(=O)c1cc(-c2onc(C)c2C)ccc1C	-6.07%
CC1=C(CSCc2ccccc2)CS(=O)(=O)C1	-6.36%
CCN(CC)S(=O)(=O)c1ccc(NC(=O)Cc2ccc(OC)cc2)cc1	-7.46%
Cc1cc(C)n(CCc2nc3c4ccccc4nc(NCCCOC(C)C)n3n2)n1	0.981%
COc1cc(-c2noc(CCCC(=O)N3CCOCC3)n2)cc(OC)c1OC	-2.92%
CC(NC(=O)Cc1ccc(F)cc1)C(c1cccs1)N1CCOCC1 (stereo not drawn)	-4.74%
O=C1OC(c2ccco2)=N/C1=C\c1ccc(Cl)c(Cl)c1	5.94%
COc1ccc(C(=O)Nc2ccccc2C(C)C)cc1OC	-2.6%
N#CCNC(=O)C1(NC(=O)c2ccc(N3CCOCC3)cc2)CCc2ccccc2C1 (stereo not drawn)	1.7%
CCOc1ccc(-c2cc(N)n(S(=O)(=O)c3cc(Cl)sc3Cl)n2)cc1	1.15%
CNS(=O)(=O)c1cn(CC(=O)NCc2ccc3c(c2)OCO3)cc1S(=O)(=O)NC	-4.18%
COc1ccc(OC)c([C@@H](O)C2CCCCN2C(C)=O)c1 (stereo partly drawn)	-0.95%
COc1ccc(C2CC(C(F)(F)F)n3nc(C(=O)N4CCN(C)CC4)c(Cl)c3N2)cc1 (stereo not drawn)	-8.3%
CCc1ccc(C2c3c(-c4ccccc4O)n[nH]c3C(=O)N2CCCO)cc1 (stereo not drawn)	2.02%
O=C(c1ccc(N2CCN(CCO)CC2)nc1)N1CCOCC1	-3.33%
O=C(CN1C(=O)c2cccc3cccc1c23)Nc1cccc2ccccc12	3.17%
O=C1C2CC=C(Cl)CC2C(=O)N1CCNC1CCCCC1 (stereo not drawn)	3.05%
O=C(CSC1CC(=O)N(c2ccccc2F)C1=O)Nc1cccc(Cl)c1 (stereo not drawn)	-8.76%
CCN(CC)CCNC(=O)Cn1c(-c2ccccn2)nc2ccccc21	-5.92%
CCOC(=O)c1c(NC(=O)C23CC4CC(CC(C4)C2)C3)sc(C(C)=O)c1C	-4.8%
CCOc1ccc(/C=c2/sc3nc(=O)c(Cc4ccc(F)cc4)nn3c2=O)cc1OCC	-0.499%
Oc1ccccc1-c1nc(-c2ccccc2)no1	4.03%
CCCN(CCO)Cc1c(F)cccc1Cl	1.08%
COc1cccc(-n2cnc(=O)c3cccnc32)c1	0.245%
CCCOC(=O)c1cc(-c2ccccc2)nc2ccccc12	-5.08%

Structure (SMILES)	% Inhibition @ 10 uM
COc1ccc(C(=O)NCCN2CCCC2)cc1OC	-2.66%
O=C(NCCNC(=O)c1ccncc1)c1ccncc1	1.54%
COc1ccccc1NC(=O)c1c(NC(=O)CN2CCCC(C)C2)sc2c1CCC2 (stereo not drawn)	5.29%
Cc1ccc2occ(CC(=O)Nc3sc4c(c3C(=O)NCc3ccco3)CCCC4)c2c1	2.62%
O=C(Nc1nc[nH]n1)c1c(Cl)ccc(Cl)c1Cl	4.86%
CCOc1ccccc1-c1noc(CCCC(=O)NCc2ccco2)n1	-0.946%
COc1ccc2cc3cc(C(=O)NCCC4=CCCCC4)sc3nc2c1	3.07%
CC1(C)Cc2nc3[nH]nc(N)c3cc2CO1	3.54%
CC(C)N1C(=O)S/C(=C/c2ccc(Sc3nc4ccccc4[nH]3)o2)C1=O	6.58%
Cn1c(=O)[nH]c2nc(-c3ccccc3)n(C)c2c1=O	1.05%
COC(=O)c1c(C)nc2ccccc2c1C(=O)O	3.67%
COc1cc(CNC(=O)CCn2nc(C)c3c(C)n(-c4ccccc4)nc3c2=O)cc(OC)c1OC	-4.77%
CCNc1sc(S(=O)(=O)c2ccccc2)nc1S(=O)(=O)c1ccc(C)cc1	0.401%
O=C(NCc1ccccn1)c1ccccc1Cl	5.06%
O=C(c1ccc2nc(NC(=O)C34CC5CC(CC(C5)C3)C4)sc2c1)N1CCOCC1	-6.02%
COCCNC(=O)C1CC(c2cc(OC)c(OC)c(OC)c2)=NO1 (stereo not drawn)	-3.94%
CC1CCN(C(=O)CSc2nnc(-c3cccs3)o2)CC1	-0.999%
O=C(Cn1nc(Cc2cccnc2)c2ccccc2c1=O)NCc1ccc(F)cc1	0.44%
CC(CCc1ccccc1)N[C@H]1CC[C@H](O)CC1 (stereo partly drawn)	-5.11%
O=C(Cn1nnc2ccccc21)Nc1cccc(C(F)(F)F)c1	-2.77%
CCOc1ccc(C2N3CC4(C)CN2CC(C)(C3)C4=O)cc1OC (stereo not drawn)	-3.08%
O=C(NCc1ccc(F)cc1Cl)c1coc(=O)c2ccccc12	-3.31%
CC1(C)CC2=Nc3ccc4ncccc4c3C(c3ccccn3)C2=C(O)C1 (stereo not drawn)	2.67%
CN(CC1CCCO1)C1CCN(S(=O)(=O)c2ccc(-c3cc(C(F)(F)F)no3)s2)CC1 (stereo not drawn)	-0.342%
